# Some of the results follow.
# T1: UNK ZnF1-3 (human, UniProt Q9C0B0 31-174)
# T1 sequence: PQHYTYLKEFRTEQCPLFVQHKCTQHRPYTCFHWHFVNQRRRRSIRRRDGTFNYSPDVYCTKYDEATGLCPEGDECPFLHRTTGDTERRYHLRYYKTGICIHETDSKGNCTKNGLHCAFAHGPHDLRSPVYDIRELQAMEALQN
# B1: chr8:126347721:126347722:+_ENSMUSG00000019478_ENSMUST00000118535|mus_hu|FALSE|FALSE (ssRNA)
# RNA: GGGAGUUCUACAGUCCGACGAUCCUGAUGAAGUAAGCAAGAUUUGCCAGUUCCUGCAUUUCCAAUAACCAAGAACUUAAACAAAAAAUCGUAGGUUUCGGACAUGGCCGUCUGCGACAUCUUGGGAGCGGCGCCGCCUCUCGCCAACAGAGGAUUGAGCAUCA
# B2: chr6:38652254:38652255:-_ENSG00000124767_ENST00000373365|hu_hu|hu_hu_hu_mus_False|8_58 (ssRNA)
# RNA: GGGAGUUCUACAGUCCGACGAUCCGAGAACUUCAUAGCAGGGAAGUCAAGCUUCUGCAGGAGGGUCAGUCCAAGAACUCUAGUAUAAAAAUCCAGGGACUUCUUAGGAUCCUUAAUUCUUAGCAUCGUCUGCUGCAGUAGAAACAACAGAGGAUUGAGCAUCA
# B3: chr3:41280641:41280642:+_ENSG00000168036_ENST00000349496|hu_mus|FALSE|FALSE (ssRNA)
# RNA: GGGAGUUCUACAGUCCGACGAUCCAUAGGGUCCAUCCCCAAGGCAUCCUGGCCGUAUCCACCAGAGUGAAAAGAACGGUAGCUGGGAUCAUCCUGGCGAUAUCCAAGGGCUUCUCCCUGGGCACCAAUGUCCAGUCCAAGAUCCAACAGAGGAUUGAGCAUCA
# B4: chr5:21408736:21408737:-_ENSMUSG00000042453_ENSMUST00000161356|mus_hu|mus_mus_mus_hu_False|58_108 (ssRNA)
# RNA: GGGAGUUCUACAGUCCGACGAUCGUUGACAGCAUUAUAGAUGGUGGCUUCAUGGAACUGGAAAGGGGAGCAGCCAAUGCUAUUGGAAGAGGAAGGAAGGCACUGGGUCUGUACGAGCUGCCAGGAAUCCGAUCUUGCAUCCUUCAACAGAGGAUUGAGCAUCA
# B5: chr10:111893599:111893600:+_ENSG00000148700_ENST00000277900|hu_mus|FALSE|FALSE (ssRNA)
# RNA: GGGAGUUCUACAGUCCGACGAUCCAGGCAGCAGCUGCUAAGGAGCAACAGUAACAACGCUCUGCCAGGGACGGCAGAGUCGGCCAAGCCAGCCACUGCUGAAAAGCUCGGCCGUUUUCGGACAUAUAAAAAGAGAUGAAUUUGCAACAGAGGAUUGAGCAUCA
# B6: chr11:100445569:100445570:-_ENSMUSG00000014195_ENSMUST00000014339|mus_hu|FALSE|FALSE (ssRNA)
# RNA: GGGAGUUCUACAGUCCGACGAUCUGGAUCAAAAUCACCCAUAUUCAUGCCCUCCUCAUCUAGGUCCUGUCCACUGUCAUAGCGAGUCUUUUUCUUGGGAUCAGAGAGGAUAGUAAAGGCCUCUCCAACUUCCUUGAACUUCUUCAACAGAGGAUUGAGCAUCA
# Target: T1, UNK ZnF1-3
# Assay: nsRBNS (natural sequence RNA bind-n-seq); RBNS binding buffer (assumed for nsRBNS): 25 mM Tris pH 7.5, 150 mM KCl, 3 mM MgCl2, 0.01% Triton X-100, 500 ug/ml BSA, 20 U/ml SUPERase-In, 4 C; UNK is unkempt and MSI1 is Musashi-1; names of the RNAs are library labels; protein concentration not given here; high values mean tight binding
row,Binder,binding signal [enrichment R]
1,B1,0.986
2,B2,1.24
3,B3,0.986
4,B4,1.77
5,B5,1.2
6,B6,0.785
